Test results reported in PubChem BioAssay AID1346428 (National Center for Advancing Translational Sciences (NCATS), 2018).
About 1,200 (2.5%) of roughly 48,000 compounds were called active. Not shown: some 2% with an inconclusive outcome.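 How the source made its calls: active means activation of at least 60% and not above a set upper limit (about 1 call in 100 departs from these limits); inconclusive means activation of 40% to 60%, or above that upper limit; inactive means activation under 40%.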 Some of the results follow.
Further: 0% is about no effect.

The molecules below were run against Probable G-protein coupled receptor 32 (Homo sapiens) (UniProt O75388) (assay: qHTS for Agonists of Human Resolvin D1 Receptor DRV1). Conditions: CHO-K1 GPR32 beta-arrestin PathHunter luminescence, 90 min; at 76.9 µM; stronger effect = higher value; zero percent set by DMSO-only wells.
Chain of UniProt O75388 (O75388 whole entry, looked up, the tested form may be a part): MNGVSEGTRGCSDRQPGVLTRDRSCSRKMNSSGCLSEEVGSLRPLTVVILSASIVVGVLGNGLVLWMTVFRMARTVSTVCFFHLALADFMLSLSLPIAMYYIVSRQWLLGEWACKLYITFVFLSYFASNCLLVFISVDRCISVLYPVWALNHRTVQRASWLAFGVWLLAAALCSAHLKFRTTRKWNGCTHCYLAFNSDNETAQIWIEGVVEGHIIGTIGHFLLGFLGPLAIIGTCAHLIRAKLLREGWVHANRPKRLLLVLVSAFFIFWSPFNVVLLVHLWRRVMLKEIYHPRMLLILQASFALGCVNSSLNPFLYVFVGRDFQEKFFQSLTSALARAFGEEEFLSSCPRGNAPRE
Method in brief: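 Agonism was scored as beta-arrestin recruitment to ProLink-fused GPR32 in stably transfected CHO-K1 cells, giving a chemiluminescent beta-Gal signal; compounds were incubated 90 min at 37 °C.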
`CCOc1ccc(/C=C/c2nc(C#N)c(NC(C)c3ccccc3)o2)cc1` (configuration not stated) was tested, and the activation was inactive: -17%.
In the case of `CCCCc1ccc(NC(=O)c2ccc3c(c2)CCN3S(=O)(=O)CC)cc1`, the activation is reported as inactive: 39.5%.
`COc1cccc(C(=O)N2c3ncnn3C3(CCCCC3)[C@@H]3CCCC[C@@H]32)c1` was tested, and the activation was inactive: -15.4%.
In the case of `COc1ccc(N2CCN(S(=O)(=O)c3ccc(-c4ccno4)cc3OC)CC2)cc1`, the activation is reported as inactive: -1.94%.
In the case of `CCc1cccc(C)c1NC(=O)CN1C(=O)C2(SCC(=O)N2c2cccc(F)c2)c2ccccc21` (configuration not stated), the activation is reported as inactive: -5.47%.
In the case of `CN(Cc1ccccc1)S(=O)(=O)c1ccc(NC(=O)c2cc(=O)c3ccccc3o2)cc1`, the activation is reported as inactive: 0.441%.
With `Cc1ccccc1NC(=O)Cn1c(=O)n(CCc2ccccc2)c(=O)c2ccccc21` the activation was inactive: -32.7%.
With `Cc1cccc(N2CCN(S(=O)(=O)c3cc(C(=O)Nc4ccc(Oc5ccccc5)cc4)ccc3F)CC2)c1C` the activation was inactive: -0.999%.
For `O=c1oc2ccccc2c(N2CCN(c3ccc(F)cc3)CC2)c1CN1CCCC1`, the activation was inactive: -17.6%.
In the case of `O=C(Cn1ncc2c([nH]c3ccccc32)c1=O)NCCCN1CCN(c2ccccc2)CC1`, the activation is reported as inactive: -5.58%.
With `COc1ccc(OC)c(Nc2sc(C(=O)c3ccccc3)c(N)c2S(=O)(=O)c2ccccc2)c1` the activation was inactive: -24.9%.
For `COc1ccc(C(=O)COC(=O)c2cc(-c3cccs3)nc3ccccc23)cc1`, the activation was inactive: -10.6%.
`CC(C(=O)Nc1ccc(OC(F)(F)F)cc1)N1Cc2ccccc2C1=O` (configuration not stated) was tested, and the activation was inactive: -7.17%.
For `Cc1oc(-c2ccccc2F)nc1CN1CCC(C(=O)NCCc2ccccc2)CC1`, the activation was inactive: 7.9%.
`CCCCn1cc(S(=O)(=O)c2cc(C)ccc2C)c(=O)c2cc(F)c(F)cc21` was tested, and the activation was inactive: -9.24%.
In the case of `CCc1nn2c(=O)cc(COC(=O)c3ccccc3NC(=O)COc3ccc(C)c(C)c3)nc2s1`, the activation is reported as inactive: -5.74%.
For `COc1ccc(CNC(=O)C(C)n2nc(C)c3c(C)n(-c4ccccc4)nc3c2=O)c(OC)c1` (configuration not stated), the activation was inactive: -2.74%.
In the case of `CCOC(=O)c1cccc(NC(=O)c2oc3c(c2C)-c2nn(CC)cc2CC3)c1`, the activation is reported as inactive: -5.28%.
`Cc1c(Cl)cccc1-n1ncc(C(=O)NC2CCCCC2)c1C1CCN(C(=O)OC(C)(C)C)CC1` was tested, and the activation was inactive: -30.8%.
In the case of `COc1ccc(Br)cc1[C@@H]1Nc2ccc(C(=O)O)cc2[C@@H]2C=CC[C@@H]21`, the activation is reported as inactive: 16.8%.
With `CCOc1ccc(CCNC(=O)CSc2nnnn2-c2ccccc2)cc1OCC` the activation was inactive: 3.92%.
For `Cc1ccc(CNC(=O)Cc2csc3ccccc23)cc1`, the activation was active: 85.4%.
For `COc1ccccc1CNC(=O)C(C)n1c(=O)cc(-c2ccccc2)c2c(C)nn(C)c21` (configuration not stated), the activation was inactive: -3.69%.
For `CCOC(=O)Cn1c(=O)oc2cc(S(=O)(=O)N3CCN(c4cccc(C)c4)C(C)C3)ccc21` (configuration not stated), the activation was inactive: -15%.
For `CC(=O)Nc1ccc2nc3c(=O)n(C)c(=O)n(C)c3nc2c1C`, the activation was inactive: 4.89%.
With `Cc1nc2cccnc2n1-c1cccc(C(=O)NCCN(C)C)c1` the activation was inactive: 0.679%.
With `COc1ccc(-c2cc(C(F)F)nn2-c2ccc(S(N)(=O)=O)cc2)cc1F` the activation was inactive: 1.57%.
With `CC(C)c1nn2c(=O)cc(COC(=O)c3cccs3)nc2s1` the activation was inactive: -23.2%.
In the case of `CCc1ccc(CNC(=O)c2cnc3sc(N4CCOCC4)nn3c2=O)cc1`, the activation is reported as inactive: 4.68%.
`N#Cc1nc(-c2ccc(COc3ccccc3)o2)oc1N1CCN(c2ccccc2)CC1` was tested, and the activation was inactive: 1.78%.
`O=C1CCSC2(C(=O)N(Cc3ccc(F)cc3)c3ccccc32)N1c1ccc(Cl)cc1` (configuration not stated) was tested, and the activation was inactive: -22.5%.
`COc1ccc(Cl)cc1NC(=O)N1CCN(Cc2cc(=O)n3nc(-c4ccccc4)sc3n2)CC1` was tested, and the activation was inactive: 9.76%.
For `CCOC(=O)c1cnn(-c2ccc(C(=O)Nc3ccc(C(C)=O)cc3)cc2)c1N`, the activation was inactive: -0.471%.
With `CCCS(=O)(=O)Nc1cccc(-c2cn3ccc(C)cc3n2)c1` the activation was inactive: 41.1%.
For `CCOc1ccc2c(c1)c(=O)c(S(=O)(=O)c1ccc(F)cc1)cn2CC(=O)Nc1ccccc1C`, the activation was inactive: 5.56%.
`NC1=NC(c2cccc(Cl)c2)n2c(nc3ccccc32)N1` (configuration not stated) was tested, and the activation was inactive: 5.23%.
In the case of `COCCN(Cc1ccco1)C(=O)c1cc2c(=O)[nH]c3ccc(C)cc3c2s1`, the activation is reported as inactive: 3.68%.
With `COc1cc2cc(CNc3ccccc3)c(=O)n(CC(=O)Nc3ccc(C)c(Cl)c3)c2cc1OC` the activation was inactive: -14.3%.
With `CCOC(=O)c1c(S(=O)(=O)N2CCCC(C(=O)NCc3cccc(C)c3)C2)c(C)n(C)c1C` (configuration not stated) the activation was inactive: -2.03%.
For `Cc1ccc(-c2noc(-c3ccc(N4CCN(C)CC4)c([N+](=O)[O-])c3)n2)cc1`, the activation was inactive: 12.2%.
`O=C(COc1ccccc1)NCC(c1ccc(Cl)cc1)N1CCOCC1` (configuration not stated) was tested, and the activation was inactive: -3.14%.
In the case of `Cc1ccc(NC(=O)c2oc3ccc4c(c3c2C)C(=O)CC(C)(C)O4)c(C)c1`, the activation is reported as inactive: -12.6%.
For `COc1ccc(C)cc1NS(=O)(=O)c1c(C(=O)N2CCC(C)CC2)c(C)n(C)c1C`, the activation was inactive: -24.8%.
`COC(=O)c1ccc(NC(=O)CCCC(=O)OCC(=O)c2ccc(Cl)cc2)cc1` was tested, and the activation was inactive: 6.98%.
`O=C(CSc1n[nH]c(-c2ccc(F)cc2)n1)NCc1ccccc1Cl` was tested, and the activation was inactive: -12.4%.
With `COc1ccc(C2C=C(c3ccc(Cl)cc3)Nc3nc(-c4ccc(Cl)cc4)nn32)cc1` (configuration not stated) the activation was inactive: 10.2%.
For `CCOc1c(Br)cc(C2CC(=O)Nc3cc4c(cc32)OCO4)cc1OC` (configuration not stated), the activation was inactive: -24.8%.
`COc1ccc(CCNC(=O)c2cccc(Nc3nc4ccccc4nc3-n3nc(C)cc3C)c2)cc1OC` was tested, and the activation was inactive: 1.4%.
`OCC1O[C@H]([S-])[C@H](O)[C@@H](O)[C@@H]1O.[Au+]` (some centres not stated) was tested, and the activation was inactive: 2.01%.
`Cc1ccc2c(=O)c(C(=O)c3ccc(F)cc3)cn(CC(=O)Nc3ccc4c(c3)OCCO4)c2n1` was tested, and the activation was inactive: -3.21%.
`COC(=O)c1ccccc1NC(=O)c1nc(-c2ccc(Cl)cc2)n2c1CCCCC2` was tested, and the activation was inactive: 12.2%.
With `CCOc1cccc(C(=O)Nc2cc(C)c(O)c(-c3nc4ncccc4o3)c2)c1` the activation was inactive: 2.19%.
